Assay results as given in the supplement of paper PMC12217912.
The other results are listed elsewhere or left out. Sequences were assembled here from the parent chain. Inactive controls read about 0.05.

B1: TEV protease; numbered along this chain (parent)
chain: MGESLFKGPRDYNPISSSICHLTNESDGHTTSLYGIGFGPFIITNKHLFRRNNGTLVVQSLHGVFKVKDTTTLQQHLVDGRDMIIIRMPKDFPPFPQKLKFREPQREERICLVTTNFQTKSMSSMVSDTSCTFPSGDGIFWKHWIQTKDGQCGSPLVSTRDGFIVGIHSASNFTNTNNYFTSVPKNFMELLTNQEAQQWVSGWRLNADSVLWGGHKVFMVKPEEPFQPVKEATQL

Variants of: B1
Test: raw area under fraction-flipped curve 0-4 h after induction (AUC4h, not background-subtracted), DNA-recorder readout of cleavage of the substrate (dimensionless); higher = more cleavage of the substrate by the protease variant
Conditions: temperature: 34 °C; time window: 0-4 h after rhamnose induction
Description: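 In vivo DNA recorder in E. coli TOP10(DE3) ΔrhaA at 34 °C. Each TEVp single-site mutant (parent TEVp 0) is paired with a single-site variant of the 7-mer TEVs (canonical ENLYFQ|S). The substrate sits between flexible linkers in a Bxb1-sfGFP-TEVs-SsrA fusion, so cleavage stabilises Bxb1 and speeds flipping of a recombination array, read by NGS. The value is the raw area under the fraction-flipped curve over 0-4 h after rhamnose induction (AUC4h), with ≥20 reads per time point. It is not background-subtracted; inactive controls average about 0.047.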
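Note: Bxb1 expression induced with 0.2% (w/v) L-rhamnose at OD600 near 0.5, cultures sampled hourly, flipped fraction per protease–substrate barcode pair counted by paired-end Illumina sequencing.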

Row | Variant | area with substrate ENLYFAS | area with substrate ENLYFCS | area with substrate ENLYFES | area with substrate ENLYFFS | area with substrate ENLYFGS | area with substrate ENLYFHS | area with substrate ENLYFIS | area with substrate ENLYFKS | area with substrate ENLYFLS | area with substrate ENLYFMS | area with substrate ENLYFPS | area with substrate ENLYFRS | area with substrate ENLYFTS | area with substrate ENLYFVS | area with substrate ENLYFWS | area with substrate ENLYFYS | area with substrate ENLYFDS | area with substrate ENLYFNS | area with substrate ENLYFSS
1 | MGESLFKGPRDYNPISSSICHLTNESDGHTTSLYGIGFGPFIITNKHLFRRNNGTLVVQSLHGVFKVKDTTTLQQHLVDGRDMIIIRMPKDFPPFPQKLKFREPQREERICLVTTNFQTKSMSSMVSDTSCTFPSGDGIFWKHWIQTKDGQCGSPLVSTRDGFIVGIHSASNFDNTNNYFTSVPKNFMELLTNQEAQQWVSGWRLNADSVLWGGHKVFMVKPEEPFQPVKEATQL [T174D] | 0.0946 | 0.0693 | 0.0651 | 0.0661 | 0.0642 | 0.0575 | 0.0567 | 0.0578 | 0.0571 | 0.08 | 0.0635 | 0.0683 | 0.0772 | 0.0319 | 0.0701 | 0.0614 | – | – | –
2 | MGESLFKGPRDYNPISSSICHLTNESDGHTTSLYGIGFGPFIITNKHLFRRNNGTLVVQSLHGVFKVKDTTTLQQHLVDGRDMIIIRMPKDFPPFPQKLKFREPQREERICLVTTNFQTKSMSSMVSDTSCTFPSGDGIFWKHWIQTKDGQCGSPLVSTRDGFIVGIHSASNFTNTENYFTSVPKNFMELLTNQEAQQWVSGWRLNADSVLWGGHKVFMVKPEEPFQPVKEATQL [N177E] | 0.0574 | 0.0567 | 0.0668 | 0.0637 | – | 0.0566 | 0.0583 | 0.0627 | – | 0.0499 | 0.06 | 0.0587 | – | 0.0765 | 0.0586 | 0.0554 | 0.0693 | 0.0609 | 0.0602
3 | MGESLFKGPRDYNPISSSICHLTNESDGHTTSLYGIGFGPFIITNKHLFRRNNGTLVVQSLHGVFKVKDTTTLQQHLVDGRDMIIIRMPKDFPPFPQKLKFREPQREERICLVTTNFQTKSMSSMVSDTSCTFPSGDGIFWKHWIQTKDGQCGSPLVSTRDGFIVGIHSASNFTKTNNYFTSVPKNFMELLTNQEAQQWVSGWRLNADSVLWGGHKVFMVKPEEPFQPVKEATQL [N175K] | 0.0564 | 0.0788 | 0.0653 | 0.0722 | – | 0.0278 | 0.0518 | 0.0753 | – | 0.0639 | 0.0576 | 0.0601 | 0.0655 | 0.0645 | – | 0.0641 | 0.0674 | 0.0686 | 0.0535
4 | MGESLFKGPRDYNPISSSICHLTNESDGHTTSLYGIGFGPFIITNKHLFRRNNGTLVVQSLHGVFKVKDTTTLQQHLVDGRDMIIIRMPKDFPPFPQKLKFREPQREERICLVTTNFQTKSMSSMVSDTSCTFPSGDGIFWKHWIQTKDGQCGSPLVSTRDGFIVGIHSASNFTNNNNYFTSVPKNFMELLTNQEAQQWVSGWRLNADSVLWGGHKVFMVKPEEPFQPVKEATQL [T176N] | 0.0681 | – | – | – | 0.0653 | 0.0595 | 0.0499 | – | – | 0.0598 | 0.0588 | 0.0518 | 0.0596 | – | 0.0548 | – | 0.0625 | 0.0554 | 0.0595
5 | MGESLFKGPRDYNPISSSICHLTNESDGHTTSLYGIGFGPFIITNKHLFRRNNGTLVVQSLHGVFKVKDTTTLQQHLVDGRDMIIIRMPKDFPPFPQKLKFREPQREERICLVTTNFQTKSMSSMVSDTSCTFPSGDGIFWKHWIQTKDGQCGSPLVSTRDGFIVGIHSASNFTNCNNYFTSVPKNFMELLTNQEAQQWVSGWRLNADSVLWGGHKVFMVKPEEPFQPVKEATQL [T176C] | 0.0594 | 0.0536 | 0.0599 | 0.0772 | – | 0.0586 | – | – | – | – | 0.0749 | 0.0564 | 0.0693 | – | 0.0535 | 0.0504 | 0.053 | – | 0.0606
6 | MGESLFKGPRDYNPISSSICHLTNESDGHTTSLYGIGFGPFIITNKHLFRRNNGTLVVQSLHGVFKVKDTTTLQQHLVDGRDMIIIRMPKDFPPFPQKLKFREPQREERICLVTTNFQTKSMSSMVSDTSCTFPSGDGIFWKHWIQTKDGQCGSPLVSTRDGFIVGIHSASNFTNFNNYFTSVPKNFMELLTNQEAQQWVSGWRLNADSVLWGGHKVFMVKPEEPFQPVKEATQL [T176F] | 0.0651 | – | 0.062 | 0.061 | – | – | 0.0453 | – | – | 0.0492 | – | – | – | 0.0691 | – | – | 0.0511 | – | –
7 | MGESLFKGPRDYNPISSSICHLTNESDGHTTSLYGIGFGPFIITNKHLFRRNNGTLVVQSLHGVFKVKDTTTLQQHLVDGRDMIIIRMPKDFPPFPQKLKFREPQREERICLVTTNFQTKSMSSMVSDTSCTFPSGDGIFWKHWIQTKDGQCGSPLVSTRDGFIVGIHSASNFTNMNNYFTSVPKNFMELLTNQEAQQWVSGWRLNADSVLWGGHKVFMVKPEEPFQPVKEATQL [T176M] | 0.0678 | 0.0579 | 0.0431 | 0.0683 | – | 0.0467 | 0.0525 | 0.0493 | – | 0.0586 | – | – | 0.0661 | 0.047 | 0.053 | 0.0496 | – | 0.0671 | 0.085
8 | MGESLFKGPRDYNPISSSICHLTNESDGHTTSLYGIGFGPFIITNKHLFRRNNGTLVVQSLHGVFKVKDTTTLQQHLVDGRDMIIIRMPKDFPPFPQKLKFREPQREERICLVTTNFQTKSMSSMVSDTSCTFPSGDGIFWKHWIQTKDGQCGSPLVSTRDGFIVGIHSASNFTNSNNYFTSVPKNFMELLTNQEAQQWVSGWRLNADSVLWGGHKVFMVKPEEPFQPVKEATQL [T176S] | 0.0609 | 0.0658 | 0.0547 | 0.0791 | 0.0583 | 0.064 | 0.0582 | – | – | 0.0648 | 0.063 | 0.0636 | 0.0575 | – | 0.0619 | – | 0.0554 | – | 0.0315
9 | MGESLFKGPRDYNPISSSICHLTNESDGHTTSLYGIGFGPFIITNKHLFRRNNGTLVVQSLHGVFKVKDTTTLQQHLVDGRDMIIIRMPKDFPPFPQKLKFREPQREERICLVTTNFQTKSMSSMVSDTSCTFPSGDGIFWKHWIQTKDGQCGSPLVSTRDGFIVGIHSASNFTNINNYFTSVPKNFMELLTNQEAQQWVSGWRLNADSVLWGGHKVFMVKPEEPFQPVKEATQL [T176I] | 0.0593 | 0.0501 | 0.067 | 0.0571 | 0.052 | 0.0607 | 0.0657 | 0.0404 | 0.0683 | 0.0579 | 0.049 | 0.0533 | 0.0652 | 0.0555 | – | – | – | 0.067 | 0.0582
